For this test, the target named is GPR88-Rluc8 (human) (UniProt Q9GZN0). Description: FRET or BRET; BRET1 saturation in living transfected HEK293FT cells: constant Rluc8-tagged receptor (30 ng cDNA; 50 ng SP-µOR, 20 ng δOR-RLuc8), increasing Venus-tagged receptor (0-100 ng); PBS, 5 mM HEPES, 5 µM coelenterazine H; no agonist; saturated signal read as proximity within 10 nm. For orientation: Bioluminescence resonance energy transfer reports proximity on the nanometre scale.

Amino acid sequences for entries named in this document (tags omitted).
UniProt Q9GZN0: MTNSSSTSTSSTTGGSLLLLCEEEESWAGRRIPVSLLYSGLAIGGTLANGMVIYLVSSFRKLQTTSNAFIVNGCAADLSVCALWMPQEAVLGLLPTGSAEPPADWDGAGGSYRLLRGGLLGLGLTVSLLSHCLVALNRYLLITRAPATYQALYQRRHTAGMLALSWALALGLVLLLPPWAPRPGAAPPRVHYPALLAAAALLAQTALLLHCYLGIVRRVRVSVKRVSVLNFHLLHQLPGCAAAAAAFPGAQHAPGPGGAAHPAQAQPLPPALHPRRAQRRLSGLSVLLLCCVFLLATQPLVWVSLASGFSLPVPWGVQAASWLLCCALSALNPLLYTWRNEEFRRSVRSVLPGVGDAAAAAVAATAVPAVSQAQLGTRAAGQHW

These are yes or no findings as the source states them, for the method shown. In cells and extracts the contact can be indirect. Some entries that bind do so weakly or less than the wild type.

B1: GPR12-Venus (receptor, UniProt P47775 1-334)
chain: MNEDLKVNLSGLPRDYLDAAAAENISAAVSSRVPAVEPEPELVVNPWDIVLCTSGTLISCENAIVVLIIFHNPSLRAPMFLLIGSLALADLLAGIGLITNFVFAYLLQSEATKLVTIGLIVASFSASVCSLLAITVDRYLSLYYALTYHSERTVTFTYVMLVMLWGTSICLGLLPVMGWNCLRDESTCSVVRPLTKNNAAILSVSFLFMFALMLQLYIQICKIVMRHAHQIALQHHFLATSHYVTTRKGVSTLAIILGTFAACWMPFTLYSLIADYTYPSIYTYATLLPATYNSIINPVIYAFRNQEIQKALCLICCGCIPSSLAQRARSPSDV
Turning to B1, the binding entry was “binds”.

Source of the values: article PMC7012601.
